Test results: PMC9792594
Results are given in words; binding and its absence hold for the method and conditions named. In cells and extracts the contact can be indirect. Some binding calls cover weakened binding; strength is not graded here. Sequences can lack the tags named with a protein.

Sequences of proteins named here, by UniProt entry; tags and fusion partners are left off. A change or cut given only in a name is not applied to a line headed by its entry. A line that says so, or that is headed by a name, gives the form on record, which may keep a tag or linker. Residues count along the entry.
soluble form of FLAG-tagged FAM20C (wild type) (Q8IXL6, residues 43-584): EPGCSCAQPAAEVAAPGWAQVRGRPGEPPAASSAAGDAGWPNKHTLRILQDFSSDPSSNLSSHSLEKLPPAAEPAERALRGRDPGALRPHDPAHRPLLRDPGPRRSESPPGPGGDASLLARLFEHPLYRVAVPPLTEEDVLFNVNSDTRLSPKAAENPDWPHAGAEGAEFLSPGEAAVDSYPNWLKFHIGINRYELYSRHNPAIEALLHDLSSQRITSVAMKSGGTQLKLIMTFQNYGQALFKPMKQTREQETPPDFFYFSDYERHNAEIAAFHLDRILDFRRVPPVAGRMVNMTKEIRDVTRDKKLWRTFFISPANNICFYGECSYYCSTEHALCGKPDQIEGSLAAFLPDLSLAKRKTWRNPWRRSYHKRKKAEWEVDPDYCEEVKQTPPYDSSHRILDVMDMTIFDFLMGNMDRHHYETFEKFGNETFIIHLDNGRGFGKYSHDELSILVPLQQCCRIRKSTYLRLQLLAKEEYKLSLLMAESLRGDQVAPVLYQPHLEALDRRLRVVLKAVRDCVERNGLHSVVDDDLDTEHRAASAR
soluble form of FLAG-tagged FAM20C L388R (Q8IXL6-1, form named): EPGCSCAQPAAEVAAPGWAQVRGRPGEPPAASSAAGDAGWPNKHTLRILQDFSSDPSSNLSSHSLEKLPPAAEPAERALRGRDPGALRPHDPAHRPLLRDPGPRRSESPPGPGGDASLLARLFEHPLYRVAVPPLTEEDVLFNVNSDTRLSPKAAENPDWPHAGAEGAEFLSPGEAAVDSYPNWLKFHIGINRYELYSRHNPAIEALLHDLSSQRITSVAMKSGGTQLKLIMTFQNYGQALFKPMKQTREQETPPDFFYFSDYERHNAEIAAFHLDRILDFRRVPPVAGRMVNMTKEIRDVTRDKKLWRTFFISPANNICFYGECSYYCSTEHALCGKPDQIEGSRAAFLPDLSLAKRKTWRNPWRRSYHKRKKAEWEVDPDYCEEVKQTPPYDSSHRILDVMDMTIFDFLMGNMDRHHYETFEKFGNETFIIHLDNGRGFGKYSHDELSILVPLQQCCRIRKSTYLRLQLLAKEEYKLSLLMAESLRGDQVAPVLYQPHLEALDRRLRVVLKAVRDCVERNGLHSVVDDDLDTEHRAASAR
soluble form of FLAG-tagged FAM20C G379R (Q8IXL6-1, form named): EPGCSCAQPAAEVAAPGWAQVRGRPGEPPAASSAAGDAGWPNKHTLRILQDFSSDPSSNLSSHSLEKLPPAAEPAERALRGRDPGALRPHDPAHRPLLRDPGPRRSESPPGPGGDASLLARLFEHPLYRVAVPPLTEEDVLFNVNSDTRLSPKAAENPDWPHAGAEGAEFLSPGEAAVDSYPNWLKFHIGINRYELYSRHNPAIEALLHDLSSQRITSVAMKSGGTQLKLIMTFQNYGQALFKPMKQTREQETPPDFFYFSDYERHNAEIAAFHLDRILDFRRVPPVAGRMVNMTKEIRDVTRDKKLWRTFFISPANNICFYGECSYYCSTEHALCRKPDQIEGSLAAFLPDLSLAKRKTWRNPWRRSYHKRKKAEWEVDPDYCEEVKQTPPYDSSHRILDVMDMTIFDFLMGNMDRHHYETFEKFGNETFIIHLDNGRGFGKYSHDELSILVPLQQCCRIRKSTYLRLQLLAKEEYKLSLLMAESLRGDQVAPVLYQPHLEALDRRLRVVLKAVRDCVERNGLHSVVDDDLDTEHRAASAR
soluble form of FLAG-tagged FAM20C R549W (Q8IXL6-1, form named): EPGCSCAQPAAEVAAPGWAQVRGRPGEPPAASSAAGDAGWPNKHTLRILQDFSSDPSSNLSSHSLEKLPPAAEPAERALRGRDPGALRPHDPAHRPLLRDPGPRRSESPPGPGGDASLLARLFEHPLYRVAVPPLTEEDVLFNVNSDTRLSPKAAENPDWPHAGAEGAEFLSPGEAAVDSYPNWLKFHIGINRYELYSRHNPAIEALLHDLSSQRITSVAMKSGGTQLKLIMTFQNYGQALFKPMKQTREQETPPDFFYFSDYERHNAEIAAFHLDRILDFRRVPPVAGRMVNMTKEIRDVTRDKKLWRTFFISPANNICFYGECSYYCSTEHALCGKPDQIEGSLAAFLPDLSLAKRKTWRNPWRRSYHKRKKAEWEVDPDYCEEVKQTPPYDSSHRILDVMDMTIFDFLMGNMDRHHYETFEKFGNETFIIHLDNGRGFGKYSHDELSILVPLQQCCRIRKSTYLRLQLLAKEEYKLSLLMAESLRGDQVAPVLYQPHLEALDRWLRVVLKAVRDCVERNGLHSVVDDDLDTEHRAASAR
soluble form of FLAG-tagged FAM20C G379E (Q8IXL6-1, form named): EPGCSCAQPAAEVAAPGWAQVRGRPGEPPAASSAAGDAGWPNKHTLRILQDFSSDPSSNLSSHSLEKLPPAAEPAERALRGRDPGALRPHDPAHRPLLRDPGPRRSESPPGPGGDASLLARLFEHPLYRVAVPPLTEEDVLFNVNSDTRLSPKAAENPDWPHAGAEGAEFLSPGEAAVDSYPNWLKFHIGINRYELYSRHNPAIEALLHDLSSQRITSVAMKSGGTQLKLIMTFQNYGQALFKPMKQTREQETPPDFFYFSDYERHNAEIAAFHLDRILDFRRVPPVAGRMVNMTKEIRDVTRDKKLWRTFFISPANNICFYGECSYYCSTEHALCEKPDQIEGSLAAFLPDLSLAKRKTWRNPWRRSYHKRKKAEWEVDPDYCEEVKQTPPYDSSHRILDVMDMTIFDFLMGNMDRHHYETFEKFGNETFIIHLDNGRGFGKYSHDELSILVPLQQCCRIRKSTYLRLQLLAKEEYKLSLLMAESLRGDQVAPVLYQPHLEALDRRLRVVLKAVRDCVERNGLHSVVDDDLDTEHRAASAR

Target: T1, soluble form of His-tagged chondroitin 4-O-sulfotransferase-1 (UniProt Q9NPF2)
T1 sequence: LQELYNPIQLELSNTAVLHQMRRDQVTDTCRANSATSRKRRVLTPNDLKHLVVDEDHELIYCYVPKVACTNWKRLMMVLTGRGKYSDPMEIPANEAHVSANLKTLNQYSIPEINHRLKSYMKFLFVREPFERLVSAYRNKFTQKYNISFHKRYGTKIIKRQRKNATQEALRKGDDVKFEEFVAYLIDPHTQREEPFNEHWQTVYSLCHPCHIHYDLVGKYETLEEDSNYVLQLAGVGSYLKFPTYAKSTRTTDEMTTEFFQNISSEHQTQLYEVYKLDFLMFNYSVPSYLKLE
Experiment: pull-down; culture medium of COS-1 cells co-expressing soluble His-tagged C4ST-1 and FLAG-tagged FAM20 proteins; Ni-NTA agarose or anti-FLAG tag antibody beads, 4 °C, 1 h; washed with TBS with 0.05% Tween 20; eluted with imidazole or FLAG peptide; immunoblot

For “soluble form of FLAG-tagged FAM20C (wild type) (from UniProt Q8IXL6-1 43-584) (enzyme)”, which binding is on record?
The binding was “binds”.

“soluble form of FLAG-tagged FAM20C L388R (from UniProt Q8IXL6-1 43-584) (enzyme)” was tested. Which binding did it give?
The binding was “no binding”.

“soluble form of FLAG-tagged FAM20C G379R (from UniProt Q8IXL6-1 43-584) (enzyme)” was tested. Which binding did it give?
Its binding is “no binding”.

With “soluble form of FLAG-tagged FAM20C R549W (from UniProt Q8IXL6-1 43-584) (enzyme)” as the substance, how does the binding read?
Its binding is “no binding”.

Which binding does the source give for “soluble form of FLAG-tagged FAM20C G379E (from UniProt Q8IXL6-1 43-584) (enzyme)” here?
The binding was “no binding”.
